# According to a collection of fitness landscapes (doi:10.1016/j.celrep.2020.107928):
# Whole data set: some 81,000 sequences, median “one-hybrid fitness for binding NBS DNA” near -0.1, cut for the highest 2% near 0.36. The list shows a part of the results.
# B1: Caulobacter ParB omega fusion; a variant is named by its letters at X, in order, B8GW30 (parent)
# chain: MESVVVGEPGMSEGRRGLGRGLSALLGEVDAAPAQAPGEQLGGSREAPIEILQRNPDQPRRTFREEDLEDLSNSIREKGVLQPILVRPSPDTAGEYQIVAGERAWRAAQRAGLKTVPIMVRELDDLAVLEIGIIENVQRADLNVLEEALSYKVLMEKFERTQENIAQTIGKSXSHVANXMRLLXLPDEVQSYLVSGELTAXHARAIAAAADPVALAKQIIEGGLSVRETEALARKAPNLSAGKSKGGRPPRVKDTDTQALESDLSSVLGLDVSIDHRGSTGTLTITYATLEQLDDLCNRLTRGI
# Variants of: B1
# Assay: one-hybrid fitness for binding NBS DNA (the Noc-binding site; scaled: cognate 1, non-cognate 0); higher = stronger binding
# Settings: with NBS DNA site
# Method in brief: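 Selection: bacterial one-hybrid in E. coli USO, HIS3 reporter with the site 19 bp from the promoter, 48 hours at 37°C on M9-minus-histidine plus 0.1 mM IPTG and 5 mM 3-AT. Libraries were Caulobacter ParB with four randomised specificity codons, sequenced on Illumina before and after selection. Fitness is the rescaled log change in variant-to-wild-type read ratio, anchored to the cognate and non-cognate sites.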
row,Variant,one-hybrid fitness for binding NBS DNA
1,SAVN,≤ 0.2
2,RTDS,0.219
3,GGYY,≤ 0.2
4,TGNM,≤ 0.2
5,PEPQ,≤ 0.2
6,CTGC,≤ 0.2
7,QHYV,≤ 0.2
8,DPSN,≤ 0.2
9,QNHY,≤ 0.2
10,KDTK,≤ 0.2
11,QSLR,0.452
12,QKVY,≤ 0.2
13,RICF,≤ 0.2
14,YTVG,≤ 0.2
15,AREQ,≤ 0.2
16,QHDL,≤ 0.2
17,EGTR,≤ 0.2
18,PISY,≤ 0.2
19,PNLH,≤ 0.2
20,RWID,≤ 0.2
21,FYQG,≤ 0.2
22,FRGS,≤ 0.2
23,TCRC,≤ 0.2
24,WKVV,≤ 0.2

row,Variant,one-hybrid fitness for binding NBS DNA
1,ATGC,≤ 0.2
2,TKAA,≤ 0.2
3,PPFI,≤ 0.2
4,SLDQ,≤ 0.2
5,SIQR,≤ 0.2
6,CGMS,≤ 0.2
7,MDAS,≤ 0.2
8,PAAN,≤ 0.2
9,ESSA,≤ 0.2
10,NMIG,≤ 0.2
11,PVDY,≤ 0.2
12,DVGK,≤ 0.2
13,NDSK,≤ 0.2
14,RSNI,≤ 0.2
15,YVTG,≤ 0.2
16,QTLA,0.329
17,HDKE,≤ 0.2
18,VTSW,≤ 0.2
19,NYTY,≤ 0.2
20,ESAT,≤ 0.2
21,NTKR,0.255
22,HTVG,≤ 0.2
23,IREG,≤ 0.2
24,RGPV,≤ 0.2

row,Variant,one-hybrid fitness for binding NBS DNA
1,YNQT,≤ 0.2
2,SVIR,≤ 0.2
3,IDPG,≤ 0.2
4,EHLA,≤ 0.2
5,IPTV,≤ 0.2
6,TTDM,≤ 0.2
7,VYIM,≤ 0.2
8,YWPY,≤ 0.2
9,DIHT,≤ 0.2
10,SFAV,≤ 0.2
11,YYRR,≤ 0.2
12,QGLR,≤ 0.2
13,YRCC,≤ 0.2
14,TEMS,≤ 0.2
15,DIDL,≤ 0.2
16,IYNN,≤ 0.2
17,NIGT,≤ 0.2
18,MNIS,≤ 0.2
19,SHAT,≤ 0.2
20,EQNR,≤ 0.2
21,VRFV,≤ 0.2
22,RKPR,≤ 0.2
23,TLPM,≤ 0.2
24,CLDV,≤ 0.2

row,Variant,one-hybrid fitness for binding NBS DNA
1,RQGF,≤ 0.2
2,RNHH,≤ 0.2
3,PMHT,≤ 0.2
4,RRNF,0.281
5,DVKT,≤ 0.2
6,RMKN,≤ 0.2
7,THRN,≤ 0.2
8,PQPV,0.241
9,TQRL,≤ 0.2
10,STVT,≤ 0.2
11,RKHC,0.263
12,NDME,≤ 0.2
13,RPLK,≤ 0.2
14,CPGC,≤ 0.2
15,TCCR,≤ 0.2
16,KPFR,≤ 0.2
17,WSIR,≤ 0.2
18,ELSN,≤ 0.2
19,ISPC,≤ 0.2
20,RVYG,≤ 0.2
21,QYPG,≤ 0.2
22,LLAH,≤ 0.2
23,HDPM,≤ 0.2
24,DCDT,≤ 0.2

row,Variant,one-hybrid fitness for binding NBS DNA
1,RCLC,≤ 0.2
2,WLLN,≤ 0.2
3,QNIS,≤ 0.2
4,EHKR,0.209
5,FMKK,≤ 0.2
6,KLGN,≤ 0.2
7,PVHL,≤ 0.2
8,APAN,≤ 0.2
9,IAPM,≤ 0.2
10,QFPI,≤ 0.2
11,RYRQ,≤ 0.2
12,GRAV,≤ 0.2
13,NVQQ,0.264
14,YKDN,≤ 0.2
15,DFRY,≤ 0.2
16,SMST,≤ 0.2
17,PHCE,≤ 0.2
18,SPYG,≤ 0.2
19,DIGK,≤ 0.2
20,GTAK,≤ 0.2
21,CHSY,≤ 0.2
22,TQYL,≤ 0.2
23,PYTN,≤ 0.2
24,RCYT,0.517

row,Variant,one-hybrid fitness for binding NBS DNA
1,KWRS,≤ 0.2
2,HVNL,≤ 0.2
3,LGEG,≤ 0.2
4,TTMI,≤ 0.2
5,SIAL,≤ 0.2
6,PFIR,≤ 0.2
7,SLRM,≤ 0.2
8,SKTY,≤ 0.2
9,RMYY,≤ 0.2
10,HTRP,≤ 0.2
11,VSLL,≤ 0.2
12,DIWY,≤ 0.2
13,ISRK,≤ 0.2
14,LGES,≤ 0.2
15,ELRV,≤ 0.2
16,PFIM,≤ 0.2
17,CARS,≤ 0.2
18,RARI,≤ 0.2
19,RLND,≤ 0.2
20,KQFV,≤ 0.2
21,GGMY,≤ 0.2
22,GTEG,≤ 0.2
23,CITH,≤ 0.2
24,YQIS,≤ 0.2

row,Variant,one-hybrid fitness for binding NBS DNA
1,HALF,≤ 0.2
2,RRTN,0.339
3,QCPA,≤ 0.2
4,IWES,≤ 0.2
5,CSWG,≤ 0.2
6,SYYW,≤ 0.2
7,NNDL,≤ 0.2
8,MAVE,≤ 0.2
9,TCVP,≤ 0.2
10,QWTW,≤ 0.2
11,HYQG,≤ 0.2
12,QLCF,≤ 0.2
13,TNAA,≤ 0.2
14,QMTY,≤ 0.2
15,IAVS,≤ 0.2
16,TLTH,≤ 0.2
17,HDRP,≤ 0.2
18,MSLI,≤ 0.2
19,HNKY,≤ 0.2
20,RNWN,≤ 0.2
21,CQLS,≤ 0.2
22,HFHL,≤ 0.2
23,PKYS,≤ 0.2
24,TVEL,≤ 0.2

row,Variant,one-hybrid fitness for binding NBS DNA
1,CPRV,≤ 0.2
2,ATQE,≤ 0.2
3,YVQC,≤ 0.2
4,EMDG,≤ 0.2
5,QQLC,≤ 0.2
6,NCTT,≤ 0.2
7,RSCC,≤ 0.2
8,TSDA,≤ 0.2
9,HRRN,≤ 0.2
10,VHEV,≤ 0.2
11,FLYG,≤ 0.2
12,IRSA,≤ 0.2
13,RYGN,≤ 0.2
14,QTPF,≤ 0.2
15,QQKR,1.1
16,QALN,≤ 0.2
17,MCYG,≤ 0.2
18,WDLR,≤ 0.2
19,SVNG,≤ 0.2
20,HTGV,≤ 0.2
21,TDTV,≤ 0.2
22,HSGD,≤ 0.2
23,HRFP,≤ 0.2
24,PHPV,≤ 0.2

row,Variant,one-hybrid fitness for binding NBS DNA
1,FQKR,≤ 0.2
2,PVTC,≤ 0.2
3,NIQN,≤ 0.2
4,HRHQ,≤ 0.2
5,AGLN,≤ 0.2
6,KLGT,≤ 0.2
7,SPCL,≤ 0.2
8,LGRR,≤ 0.2
9,RGRR,0.336
10,GWES,≤ 0.2
11,TRGW,≤ 0.2
12,VSPE,≤ 0.2
13,SAWG,≤ 0.2
14,NHDC,≤ 0.2
15,SHSW,≤ 0.2
16,GPLE,≤ 0.2
17,YDHS,≤ 0.2
18,AGNN,≤ 0.2
19,MTHG,≤ 0.2
20,PGVR,≤ 0.2
21,PCCH,≤ 0.2
22,CWVG,≤ 0.2
23,EWGR,≤ 0.2
24,FGRR,0.315

row,Variant,one-hybrid fitness for binding NBS DNA
1,QGAM,≤ 0.2
2,QLQR,0.483
3,LAPQ,≤ 0.2
4,RWTA,≤ 0.2
5,ACHY,≤ 0.2
6,KDNV,≤ 0.2
7,TTTY,≤ 0.2
8,KGIE,≤ 0.2
9,LYRT,≤ 0.2
10,VPSS,≤ 0.2
11,GQPC,≤ 0.2
12,IRRN,≤ 0.2
13,AELG,≤ 0.2
14,FPPT,≤ 0.2
15,KKYG,≤ 0.2
16,RGWC,≤ 0.2
17,EIRT,≤ 0.2
18,QIQD,≤ 0.2
19,FWYL,≤ 0.2
20,QFLG,≤ 0.2
21,DRKR,0.238
22,SDLS,≤ 0.2
23,APNY,≤ 0.2
24,LVHR,≤ 0.2

row,Variant,one-hybrid fitness for binding NBS DNA
1,LTSG,≤ 0.2
2,FAET,≤ 0.2
3,WMIC,≤ 0.2
4,RISP,≤ 0.2
5,KDPV,≤ 0.2
6,IQTA,≤ 0.2
7,FRSR,≤ 0.2
8,SVPN,≤ 0.2
9,EALY,≤ 0.2
10,NSEC,≤ 0.2
11,EAPK,≤ 0.2
12,CTYC,≤ 0.2
13,QCCS,0.393
14,FRVS,≤ 0.2
15,VQYS,≤ 0.2
16,ESGK,≤ 0.2
17,EMLW,≤ 0.2
18,INVG,≤ 0.2
19,EAKA,≤ 0.2
20,GVAP,≤ 0.2
21,INHS,≤ 0.2
22,SNPL,≤ 0.2
23,LGYE,≤ 0.2
24,LCPR,≤ 0.2

row,Variant,one-hybrid fitness for binding NBS DNA
1,TEMF,≤ 0.2
2,CTSK,≤ 0.2
3,PGLN,≤ 0.2
4,SRMR,≤ 0.2
5,TSYH,≤ 0.2
6,KIRS,≤ 0.2
7,CGPA,≤ 0.2
8,WFSI,≤ 0.2
9,QTPS,0.314
10,KQQT,≤ 0.2
11,QFVQ,≤ 0.2
12,PMCS,≤ 0.2
13,WSSA,≤ 0.2
14,QSNH,0.273
15,QSEW,≤ 0.2
16,HMTV,≤ 0.2
17,DTFS,≤ 0.2
18,PCQN,≤ 0.2
19,HVFC,≤ 0.2
20,NHLL,≤ 0.2
21,DTDR,≤ 0.2
22,EMRR,0.21
23,KPVD,≤ 0.2
24,GWWT,≤ 0.2

row,Variant,one-hybrid fitness for binding NBS DNA
1,AHYE,≤ 0.2
2,RSVA,≤ 0.2
3,PGQD,≤ 0.2
4,DQWV,≤ 0.2
5,RNAA,≤ 0.2
6,PWYC,≤ 0.2
7,NGPR,≤ 0.2
8,QNVW,≤ 0.2
9,KSRG,≤ 0.2
10,TFGN,≤ 0.2
11,SNRK,≤ 0.2
12,WVQG,≤ 0.2
13,CHRG,≤ 0.2
14,FGNR,≤ 0.2
15,KWYS,≤ 0.2
16,QWYM,≤ 0.2
17,PPHT,≤ 0.2
18,QRAA,0.617
